Some of these densities may be calculated back from excess volumes.
Test: xn = mol fraction of the nth substance listed
Conditions: 298.15 K, 101.3 kPa

[Br][Al]([Br])[Br] + CC[n+]1ccccc1.[Br-]
Conditions	mass density [kg/m3]
x2 = 0.65	1626

CCOS(=O)(=O)[O-].CC[n+]1ccn(C)c1 + O
Conditions	mass density [kg/m3]
x1 = 0.004	1007
x1 = 0.0084	1016
x1 = 0.0133	1025
x2 = 0.6983	1187
x2 = 0.7663	1174
x2 = 0.8139	1161
x2 = 0.8974	1123
x2 = 0.9148	1111
x2 = 0.9413	1088
x2 = 0.9606	1066

CC[n+]1ccn(C)c1.F[B-](F)(F)F + O
Conditions	mass density [kg/m3]
x1 = 0.0158	1028
x2 = 0	1279
x2 = 0.3664	1253
x2 = 0.5498	1229
x2 = 0.7331	1187
x2 = 0.8999	1110
x2 = 0.9166	1098
x2 = 0.9428	1077
x2 = 0.9533	1067
x2 = 0.9625	1057
x2 = 0.9778	1038

Reference: a compilation of properties of binary mixtures (doi:10.1016/j.fluid.2006.05.028)
